The record followed here is US10299477B2 (priority 2015, dated 2019).

In this assay the test system is Colletotrichum orbiculare. The settings on record: in vivo.

As to `CCn1c(-c2c(F)cccc2F)c(-c2cc(OC)cc(OC)c2Cl)ccc1=O` [Compound 32], the “Test H control value” was “H (key: H shows more than 50% of control values; L shows 50% or less of control values)”.

As to `CCn1c(-c2c(F)cccc2F)c(-c2cc(OC)ccc2Cl)cc(Cl)c1=O` [Compound 54, 3-chloro-5-(2-chloro-5-methoxyphenyl)-6-(2,6-difluorophenyl)-1-ethylpyridine-2(1H)-one], the “Test H control value” was “H (key: H shows more than 50% of control values; L shows 50% or less of control values)”.

As to `CCn1c(-c2c(F)cccc2F)c(-c2cc(OCOC)ccc2Cl)ccc1=O` [Compound 97, 5-(2-chloro-5-(methoxymethoxy)phenyl)-6-(2,6-difluorophenyl)-1-ethylpyridine-2(1H)-one], the “Test H control value” is listed as “H (key: H shows more than 50% of control values; L shows 50% or less of control values)”.

Turning to `CCn1c(-c2c(F)cccc2F)c(-c2cc(OCC#N)ccc2Cl)ccc1=O` [Compound 98], the “Test H control value” is on record as “H (key: H shows more than 50% of control values; L shows 50% or less of control values)”.

`CCOc1ccc(Cl)c(-c2ccc(=O)n(CC)c2-c2c(F)cccc2F)c1` [Compound 99]: the “Test H control value” is given as “H (key: H shows more than 50% of control values; L shows 50% or less of control values)”.

Take `COc1cc(OC)c(Cl)c(-c2ccc(=O)n(C)c2-c2c(F)cc(F)cc2F)c1` [Compound 136, 5-(2-chloro-3,5-dimethoxyphenyl)-1-methyl-6-(2,4,6-trifluorophenyl)pyridine-2(1H)-one]: the “Test H control value” was “H (key: H shows more than 50% of control values; L shows 50% or less of control values)”.

Consider `Cn1c(-c2c(F)cccc2F)c(-c2ccccc2F)ccc1=O` [Compound 143], for which the “Test H control value” was “H (key: H shows more than 50% of control values; L shows 50% or less of control values)”.

Turning to `Cn1c(-c2c(F)cccc2F)c(-c2ccccc2F)cc(Cl)c1=O` [Compound 144], the “Test H control value” is “H (key: H shows more than 50% of control values; L shows 50% or less of control values)”.

For the compound `Cn1c(-c2c(F)cccc2F)c(-c2ccccc2F)cc(Br)c1=O` [Compound 145], the “Test H control value” is recorded as “H (key: H shows more than 50% of control values; L shows 50% or less of control values)”.

`CCn1c(-c2c(F)cccc2F)c(-c2ccccc2C(F)(F)F)ccc1=O` [Compound 146]: the “Test H control value” is “L (key: H shows more than 50% of control values; L shows 50% or less of control values)”.

Take `CCn1c(-c2c(F)cccc2F)c(-c2ccccc2C(F)(F)F)cc(Cl)c1=O` [Compound 147]: the “Test H control value” was “L (key: H shows more than 50% of control values; L shows 50% or less of control values)”.

In the case of `CCn1c(-c2c(F)cccc2F)c(-c2ccccc2C(F)(F)F)cc(Br)c1=O` [Compound 148], the “Test H control value” is given as “L (key: H shows more than 50% of control values; L shows 50% or less of control values)”.

Turning to `CCn1c(-c2c(F)cccc2Cl)c(-c2cc(OC)cc(OC)c2Cl)ccc1=O` [Compound 152], the “Test H control value” is given as “H (key: H shows more than 50% of control values; L shows 50% or less of control values)”.

Consider `CCn1c(-c2c(F)cccc2F)c(-c2cccc(F)c2)ccc1=O` [Compound 153], for which the “Test H control value” is “H (key: H shows more than 50% of control values; L shows 50% or less of control values)”.

Turning to `CCn1c(-c2c(F)cccc2F)c(-c2cccc(F)c2)cc(Cl)c1=O` [Compound 154], the “Test H control value” is reported as “L (key: H shows more than 50% of control values; L shows 50% or less of control values)”.

As to `CCn1c(-c2c(F)cccc2F)c(-c2cccc(F)c2)cc(Br)c1=O` [Compound 155], the “Test H control value” was “L (key: H shows more than 50% of control values; L shows 50% or less of control values)”.

With `CCN1C(=O)CCC(c2cccc(F)c2)=C1c1c(F)cccc1F` [Compound 156], the “Test H control value” is “H (key: H shows more than 50% of control values; L shows 50% or less of control values)”.

`Cn1c(-c2c(F)cccc2F)c(-c2ccccc2C(F)(F)F)ccc1=O` [Compound 157]: the “Test H control value” is on record as “H (key: H shows more than 50% of control values; L shows 50% or less of control values)”.

For the compound `Cn1c(-c2c(F)cccc2F)c(-c2ccccc2C(F)(F)F)cc(Br)c1=O` [Compound 159], the “Test H control value” is given as “L (key: H shows more than 50% of control values; L shows 50% or less of control values)”.

Regarding `CCn1c(-c2c(F)cccc2F)c(-c2ccccc2C)ccc1=O` [Compound 160], the “Test H control value” is “H (key: H shows more than 50% of control values; L shows 50% or less of control values)”.

With `CCn1c(-c2c(F)cccc2F)c(-c2ccccc2C)cc(Cl)c1=O` [Compound 161], the “Test H control value” is “L (key: H shows more than 50% of control values; L shows 50% or less of control values)”.

Turning to `CCn1c(-c2c(F)cccc2F)c(-c2ccccc2C)cc(Br)c1=O` [Compound 162], the “Test H control value” is listed as “L (key: H shows more than 50% of control values; L shows 50% or less of control values)”.

For `COc1cc(OC)cc(C2=C(c3c(F)cccc3Cl)N(C)C(=O)CC2)c1` [Compound 163], the “Test H control value” is given as “L (key: H shows more than 50% of control values; L shows 50% or less of control values)”.

For the compound `COc1cc(OC)cc(-c2ccc(=O)n(C)c2-c2c(F)cccc2Cl)c1` [Compound 164], the “Test H control value” was “H (key: H shows more than 50% of control values; L shows 50% or less of control values)”.

Consider `COc1cc(OC)c(Cl)c(-c2ccc(=O)n(C)c2-c2c(F)cccc2Cl)c1` [Compound 166], for which the “Test H control value” is “H (key: H shows more than 50% of control values; L shows 50% or less of control values)”.

With `CCn1c(-c2c(F)cccc2Cl)c(-c2c(Cl)c(OC)cc(OC)c2Cl)cc(Cl)c1=O` [Compound 167], the “Test H control value” is recorded as “L (key: H shows more than 50% of control values; L shows 50% or less of control values)”.

For the compound `Cn1c(-c2c(F)cccc2F)c(-c2cccc(F)c2)cc(Cl)c1=O` [Compound 169], the “Test H control value” was “H (key: H shows more than 50% of control values; L shows 50% or less of control values)”.

For `Cn1c(-c2c(F)cccc2F)c(-c2cccc(F)c2)cc(Br)c1=O` [Compound 170], the “Test H control value” is given as “H (key: H shows more than 50% of control values; L shows 50% or less of control values)”.

`CCn1c(-c2c(F)cccc2F)c(-c2cccc(Cl)c2)ccc1=O` [Compound 171]: the “Test H control value” is given as “H (key: H shows more than 50% of control values; L shows 50% or less of control values)”.

As to `CN1C(=O)CCC(c2cccc(F)c2)=C1c1c(F)cccc1F` [Compound 172], the “Test H control value” is given as “L (key: H shows more than 50% of control values; L shows 50% or less of control values)”.

In the case of `CCN1C(=O)CCC(c2cc(OC)cc(OC)c2)=C1c1c(F)cccc1Br` [Compound 174], the “Test H control value” is “L (key: H shows more than 50% of control values; L shows 50% or less of control values)”.

For `CCn1c(-c2c(F)cccc2Br)c(-c2cc(OC)cc(OC)c2)ccc1=O` [Compound 175], the “Test H control value” was “H (key: H shows more than 50% of control values; L shows 50% or less of control values)”.

As for `CCn1c(-c2c(F)cccc2Br)c(-c2cc(OC)cc(OC)c2Br)ccc1=O` [Compound 176], the “Test H control value” is reported as “H (key: H shows more than 50% of control values; L shows 50% or less of control values)”.

As for `CCn1c(-c2c(F)cccc2Br)c(-c2cc(OC)cc(OC)c2Cl)ccc1=O` [Compound 177], the “Test H control value” is “H (key: H shows more than 50% of control values; L shows 50% or less of control values)”.

Take `CCn1c(-c2c(F)cccc2F)c(-c2cccc(Cl)c2)cc(Cl)c1=O` [Compound 178]: the “Test H control value” was “L (key: H shows more than 50% of control values; L shows 50% or less of control values)”.

`CCn1c(-c2c(F)cccc2F)c(-c2cccc(Cl)c2)cc(Br)c1=O` [Compound 179]: the “Test H control value” is “L (key: H shows more than 50% of control values; L shows 50% or less of control values)”.

As for `Cc1ccccc1-c1ccc(=O)n(C)c1-c1c(F)cccc1F` [Compound 180], the “Test H control value” is recorded as “H (key: H shows more than 50% of control values; L shows 50% or less of control values)”.

`Cc1ccccc1-c1cc(Cl)c(=O)n(C)c1-c1c(F)cccc1F` [Compound 181]: the “Test H control value” was “L (key: H shows more than 50% of control values; L shows 50% or less of control values)”.

`Cc1ccccc1-c1cc(Br)c(=O)n(C)c1-c1c(F)cccc1F` [Compound 182]: the “Test H control value” is given as “L (key: H shows more than 50% of control values; L shows 50% or less of control values)”.

Turning to `COc1cc(OC)cc(-c2ccc(=O)n(C)c2-c2c(F)cccc2Br)c1` [Compound 183], the “Test H control value” is “L (key: H shows more than 50% of control values; L shows 50% or less of control values)”.

For `COc1cc(OC)c(Br)c(-c2ccc(=O)n(C)c2-c2c(F)cccc2Br)c1` [Compound 184], the “Test H control value” is “H (key: H shows more than 50% of control values; L shows 50% or less of control values)”.

In the case of `Cn1c(-c2c(F)cccc2F)c(-c2c(F)c(F)c(F)c(F)c2F)ccc1=O` [Compound 373], the “Test H (control value class)” value is recorded as “L (key: H shows more than 50% of control values; L shows 50% or less of control values)”.

For `Cn1c(-c2c(F)cccc2F)c(-c2c(F)c(F)c(F)c(F)c2F)cc(Cl)c1=O` [Compound 374], the “Test H (control value class)” value is listed as “H (key: H shows more than 50% of control values; L shows 50% or less of control values)”.

For the compound `CCn1c(-c2c(F)cccc2F)c(-c2cc(OC)ccc2Cl)cc(SC)c1=O` [Compound 375], the “Test H (control value class)” value is given as “H (key: H shows more than 50% of control values; L shows 50% or less of control values)”.

Take `CCOc1ccc(Cl)c(-c2cc(Cl)c(=O)n(CC)c2-c2c(F)cccc2F)c1` [Compound 376]: the “Test H (control value class)” value is reported as “H (key: H shows more than 50% of control values; L shows 50% or less of control values)”.

Consider `COc1cc(OC)c(Cl)c(-c2ccc(=O)n(CC(F)(F)F)c2-c2c(F)cc(F)cc2F)c1` [Compound 377], for which the “Test H (control value class)” value is on record as “H (key: H shows more than 50% of control values; L shows 50% or less of control values)”.

As for `COc1cc(OC)c(Cl)c(-c2ccc(=O)n(/C=C/F)c2-c2c(F)cc(F)cc2F)c1` [Compound 379], the “Test H (control value class)” value is given as “H (key: H shows more than 50% of control values; L shows 50% or less of control values)”.
